These are yes or no findings as the source states them, for the method shown. Binding seen in cells or lysates may run through a third protein. Some results given as binding are weak or reduced against the parent protein; the word gives no strength. Values belong to the binder of their own block, whether it stands above or below them.
Columns and labels:
Assay in all cases: co-IP; Arabidopsis (leaf) protoplasts transformed with the indicated plasmids, cultured 16 h, lysed in extracting buffer (40 mM PIPES pH 7.4, 8 mM EGTA, 1 mM MgCl2, 0.33 M sucrose, 1 mM DTT, 1% Triton X-100); supernatant incubated with anti-Myc or anti-GFP agarose 4 h at 4 °C; blots with anti-GFP and anti-Myc; for SUN4 with CRT3 also after tunicamycin treatment of the protoplasts
[1] = target: T1, CNX1 (Arabidopsis thaliana) (UniProt P29402)
T1 sequence: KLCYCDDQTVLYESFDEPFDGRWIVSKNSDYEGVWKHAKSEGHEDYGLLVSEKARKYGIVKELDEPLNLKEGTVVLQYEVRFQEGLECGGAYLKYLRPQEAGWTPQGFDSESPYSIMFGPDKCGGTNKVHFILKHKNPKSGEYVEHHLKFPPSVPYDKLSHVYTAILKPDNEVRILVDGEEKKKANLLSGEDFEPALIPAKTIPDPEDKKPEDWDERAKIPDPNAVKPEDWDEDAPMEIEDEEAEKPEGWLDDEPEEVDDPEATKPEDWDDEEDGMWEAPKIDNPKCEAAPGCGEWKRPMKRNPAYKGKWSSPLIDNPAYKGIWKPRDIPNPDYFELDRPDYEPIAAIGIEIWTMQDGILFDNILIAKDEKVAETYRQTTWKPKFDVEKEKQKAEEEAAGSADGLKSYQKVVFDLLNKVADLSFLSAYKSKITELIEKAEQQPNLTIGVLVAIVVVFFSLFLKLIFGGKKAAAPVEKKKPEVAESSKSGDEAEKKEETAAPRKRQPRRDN

By UniProt entry, the sequences of proteins in these tests, tags left out. Residues count along the entry.
UniProt Q38858, residues 23-424: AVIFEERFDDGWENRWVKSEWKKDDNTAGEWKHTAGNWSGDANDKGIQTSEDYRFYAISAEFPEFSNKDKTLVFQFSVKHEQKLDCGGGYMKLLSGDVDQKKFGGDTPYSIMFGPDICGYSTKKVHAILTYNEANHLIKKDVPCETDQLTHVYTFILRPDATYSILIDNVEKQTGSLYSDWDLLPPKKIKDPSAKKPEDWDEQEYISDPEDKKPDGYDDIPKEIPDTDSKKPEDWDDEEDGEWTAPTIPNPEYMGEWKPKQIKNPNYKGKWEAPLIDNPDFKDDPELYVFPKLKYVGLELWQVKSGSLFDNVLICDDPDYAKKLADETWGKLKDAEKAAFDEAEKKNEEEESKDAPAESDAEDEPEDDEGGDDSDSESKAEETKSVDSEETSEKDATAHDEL
UniProt O04153, residues 29-424: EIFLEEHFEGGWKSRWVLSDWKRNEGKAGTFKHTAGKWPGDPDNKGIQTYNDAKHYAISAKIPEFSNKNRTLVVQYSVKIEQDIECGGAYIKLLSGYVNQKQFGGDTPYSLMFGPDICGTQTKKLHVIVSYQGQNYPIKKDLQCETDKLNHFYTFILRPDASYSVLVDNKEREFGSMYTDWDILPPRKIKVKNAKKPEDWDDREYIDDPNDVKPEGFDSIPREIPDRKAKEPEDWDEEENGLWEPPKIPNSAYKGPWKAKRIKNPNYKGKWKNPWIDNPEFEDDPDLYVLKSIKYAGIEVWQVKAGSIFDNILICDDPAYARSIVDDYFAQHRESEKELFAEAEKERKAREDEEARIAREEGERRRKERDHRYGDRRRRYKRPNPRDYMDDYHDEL

[2] = target: T2, POLLEN … IN GUIDANCE1 (POD1) (Arabidopsis thaliana) (UniProt F4HVJ3)
T2 sequence: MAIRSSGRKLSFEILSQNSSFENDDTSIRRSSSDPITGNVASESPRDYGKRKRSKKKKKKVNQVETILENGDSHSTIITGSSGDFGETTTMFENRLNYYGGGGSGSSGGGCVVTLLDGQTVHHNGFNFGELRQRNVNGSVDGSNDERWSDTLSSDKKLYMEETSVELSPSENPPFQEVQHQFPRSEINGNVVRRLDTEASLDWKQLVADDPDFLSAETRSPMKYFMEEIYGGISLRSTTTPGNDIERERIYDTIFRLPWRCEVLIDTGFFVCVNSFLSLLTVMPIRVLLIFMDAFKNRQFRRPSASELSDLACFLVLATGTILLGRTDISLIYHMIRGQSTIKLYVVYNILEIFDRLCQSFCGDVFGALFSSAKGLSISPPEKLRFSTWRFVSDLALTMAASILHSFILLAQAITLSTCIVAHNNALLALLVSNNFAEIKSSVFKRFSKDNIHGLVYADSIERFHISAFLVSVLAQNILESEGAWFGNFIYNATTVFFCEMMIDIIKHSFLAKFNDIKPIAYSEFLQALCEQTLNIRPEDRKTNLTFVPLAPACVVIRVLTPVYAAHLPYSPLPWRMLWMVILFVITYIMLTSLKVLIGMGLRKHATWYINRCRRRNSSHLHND

[3] = target: CRT2 (Arabidopsis thaliana) (UniProt Q38858)
[4] = target: CRT3 (Arabidopsis thaliana) (UniProt O04153)

binding [1]: no binding
binding [2]: binds
B1: SUN3 (protein, UniProt F4I316 1-660)
chain: MQRSCRTRRRVSVNKFNGRNSFYKVSLSLVFLLWVLLFFSTLLISHGDGAKDEPLNDSMGMADPDDGQSDEKVVPFDGPLSLASASVDVTSDLSRNDDVNLSEESEDKEQEAEISSTVSGNDIESKDTYLLKQSEINKKDTGIDAGSKYDDFPKKSEINNTGTWNDTEGKDDNNFLKQSQLNKTGTGNDTESSDNEFLEQNQMNKTVLGNGTEINVSKVDQPSRAVPLGLDEFKSRASNSRNKSLSDQVSGVIHRMEPGGKEYNYASASKGAKVLSSNKEAKGAASILSRDNDKYLRNPCSTEGKFVVVELSEETLVNTIKIANFEHYSSNLKEFELQGTLVYPTDTWVHMGNFTASNVKHEQNFTLLEPKWVRYLKLNFISHYGSEFYCTLSLIEVYGVDAVERMLEDLISVQDNKNAYKPREGDSEHKEKPMQQIESLEGDDGADKSTHREKEKEAPPENMLAKTEASMAKSSNKLSEPVEEMRHHQPGSRMPGDTVLKILMQKLRSLDLNLSILERYLEELNLRYGNIFKEMDREAGVREKAIVALRLDLEGMKERQEGMVSEAEEMKEWRKRVEAEMEKAEKEKENIRQSLEQVSKRLEWMEKKCLTVFTVCLGFGIIAVIAVVIGMGTGLAEKTGSGAWLLLLISSTFIMFVLSL

binding [1]: no binding
binding [3]: no binding
binding [2]: binds
binding [4]: binds
B2: SUN4 (protein, UniProt F4I8I0 1-596)
chain: MQRSRRALLVRRRVSETTSNGRNRFYKVSLSLVFLIWGLVFLSTLWISHVDGDKGRSLVDSVEKGEPDDERADETAESVDATSLESTSVHSNPGLSSDVDIAAAGESKGSETILKQLEVDNTIVIVGNVTESKDNVPMKQSEINNNTVPGNDTETTGSKLDQLSRAVPLGLDEFKSRASNSRDKSLSGQVTGVIHRMEPGGKEYNYAAASKGAKVLSSNKEAKGASSIICRDKDKYLRNPCSTEGKFVVIELSEETLVNTIKIANFEHYSSNLKDFEILGTLVYPTDTWVHLGNFTALNMKHEQNFTFADPKWVRYLKLNLLSHYGSEFYCTLSLLEVYGVDAVERMLEDLISIQDKNILKLQEGDTEQKEKKTMQAKESFESDEDKSKQKEKEQEASPENAVVKDEVSLEKRKLPDPVEEIKHQPGSRMPGDTVLKILMQKIRSLDVSLSVLESYLEERSLKYGMIFKEMDLEASKREKEVETMRLEVEGMKEREENTKKEAMEMRKWRMRVETELEKAENEKEKVKERLEQVLERLEWMEKKGVVVFTICVGFGTIAVVAVVFGMGIVRAEKQGGLAWLLLLISSTFVMFILSL

binding [1]: no binding
binding [2]: binds
B3: SUN5 (protein, UniProt F4JPE9 1-561)
chain: MARRGSCSTICLNEKLQRFRIVRISDKADNFNSRSGSFFERSISLVLLLWCFLFLVYSKLGQSHDDYGNADRIGNYTDGSVSKTLNSTSSVFPQATEKENNFCLLRKGQLQDVYEHVLVNNALLICKVVLPERRISKKTLEARDPRYVNLEDKSLKVNGSSQLVNNGTRYRLEPDGNGYNYASAMKGAKVVDHNKEAKGASNVLGKDHDKYLRNPCSVSDKYVVIELAEETLVDTVRIANFEHYSSNPKEFSLSGSLSFPSDMWTPAGSFAAANVKQIQSFRLPEPKWLRYLKLNLVSHYGSEFYCTLSVVEVFGIDALEQMLEDLFVPSETPPSKPAMVELKTADEKQDGEIKSNRTDQIGKETEAQKKKDDVVKTINIIGDKKYEVKEKHNVLKVMMQKVKLIEMNLSLLEDSVKKMNDKQPEVSLEMKKTLVLVEKSKADIREITEWKGKMEKELRDLELWKTLVASRVESLARGNSALRLDVEKIVKEQANLESKELGVLLISLFFVVLATIRLVSTRLWAFLGMSITDKARSLWPDSGWVMILLSSSIMIFIHLLS

binding [4]: binds
B4: POLLEN … IN GUIDANCE1 (POD1) (protein, UniProt F4HVJ3 1-624)
chain: T2 sequence
